From PubChem BioAssay AID1508623 (National Center for Advancing Translational Sciences (NCATS), 2021)
Values joined by “and” are separate entries in the source; they are usually repeats but may differ in a detail not shown here. Identical values can stand only once. About 450 (0.94%) of roughly 48,000 compounds were called active. The shares of active, inactive and inconclusive entries below differ from those in the screen. Calls come from the whole dose curve; as a rule, active = well fitted inhibition curve with a large enough effect; inconclusive = small, poorly fitted or top-dose-only effect; inactive = no such curve, though single readings can be large or run the other way. Where the call is inconclusive, the potency comes from a doubtful curve fit.

Assay: Primary qHTS for Identification of Small Molecule Inhibitors of Huntingtin Promoter Activity; note: nearly all actives have a fitted effect of over 50% in size
Settings: HEK293 HTT promoter firefly luciferase reporter (activity 0% = vehicle and -100% = no light), 24 h; activity change, negative = inhibition: at 57.5 µM (top of the series)
Text: Assay Provider: Russell L. Margolis M.D.
Department Neurology, Johns Hopkins University School of Medicine, Baltimore, MD
Huntington's Disease (HD) is a neurodegenerative disorder caused by a CAG repeat expansion in exon 1 of huntingtin (HTT). While there are currently no disease-modifying treatments for HD, recent efforts have focused on development of nucleotide-based therapeutics to lower HTT expression. As an alternative to siRNA or oligonucleotide methods, we hypothesized that suppression of HTT expression might be accomplished by small molecules that either (1) directly decrease HTT expression by suppressing HTT promoter activity or (2) indirectly decrease HTT expression by increasing the promoter activity of HTT-AS, the gene antisense to HTT that appears to inhibit expression of HTT.
We developed and employed a high throughput screen for modifiers of HTT and HTT-AS promoter activity using luminescent reporter HEK293 cells; of the 52,041 compounds tested, we identified 898 replicable hits. We used a rigorous stepwise approach to assess compound toxicity and the capacity of the compounds to specifically lower huntingtin protein in 5 different cell lines, including HEK293 cells, HD lymphoblastoid cells, mouse primary neurons, HD iPSCs differentiated into cortical-like neurons, and HD hESCs. We found no compounds which were able to lower huntingtin without lowering cell viability in all assays, though the potential efficacy of a few compounds at non-toxic doses could not be excluded.
SEQUENCE No. (1, 2, 3, etc.); […] (e.g., Cells, Incubation, Reagent, etc.); VALUE and DESCRIPTION.
1; Reagent; 4 uL; 2,500 Hek293 luciferase reporter cells per wells
3; Compound; 23 nL; Control inhibitor / compound library
5; Reagent; 2.5 uL; Firefly Luc reagent; Dual-Glo Luciferase Reporter Assay System (Promega)
6; Time; 10 min; room temperature incubation
7; Detection; Luminescence; FLuc
NOTES (numbers refer to sequence above)
1; High-throughput screening, measuring luminescence from a Hek293 luciferase reporter, was performed in 1,536 well white-walled tissue-culture treated plates. 2,500 cells were plated in 4 µL of Opti-MEM per well using a Multidrop Combi Reagent Dispenser (ThermoFisher).
2; Assay plates were cultured for 24 hours.
3; Control inhibitor (PTC124; final concentration of 50 uM) and compound library (at final concentrations of 460 nM - 57.5 uM) were added to the assay plate using the Kalypsis Pintool Robotic System equipped with 1536 pinheads.
4; Cells were then incubated for 24 hours at 37 degrees C prior to luminescence measurements.
5; In all cases, luminescence was measured using the Dual-Glo Luciferase Reporter Assay System (Promega) following the manufacturer's instructions.
6; Room temperature incubation.
7; Luminescence signal was obtained using the PerkinElmer ViewLux plate reader. Results were normalized to vehicle control (0% activity) and zero RLU (-100% activity).
Potency is the fitted concentration of half-maximal effect; tags give direction and shape of the fitted curve.

| SMILES | activity change, negative = inhibition | Potency |
| --- | --- | --- |
| COc1ccc(-c2noc(-c3cccnc3NCc3ccco3)n2)cc1 | inactive: 69.6% | – |
| CCOC(=O)CSc1nc2ccccc2c(=O)n1CCc1ccc(OC)c(OC)c1 | inactive: -17% | – |
| CCc1cccc(C)c1NC(=O)CSc1nc(C)cc(C)c1C(=O)Nc1ccccc1 | – | inconclusive: 15.8 µM [inhibitor, partial curve, poor fit] |
| Cc1cc(C)c(S(=O)(=O)Nc2cc(-c3cn4ccccc4n3)ccc2C)cc1C | – | inconclusive: 39.8 µM [inhibitor, single point] |
| Cc1ccc(C(=O)c2sc(Nc3ccccc3F)c(S(=O)(=O)c3ccccc3)c2N)c(C)c1 | – | inconclusive: 0.891 µM [inhibitor, full curve, poor fit] |
| COc1c(Cl)cc(C(=O)Nc2cccc(-c3nc4ccccc4[nH]3)c2)cc1Cl | inactive: -24.7% | – |
| Cc1ccc(Cl)cc1N1CCN(C(=O)CN2C(=O)COc3ccc(S(=O)(=O)N4CCOCC4)cc32)CC1 | inactive: -16.6% | – |
| O=C(NCc1ccc(F)cc1)c1ccc(CSc2nc3ccncc3n2Cc2ccc(F)cc2)cc1 | – | inconclusive: 39.8 µM [inhibitor, single point] |
| COc1ccc(CCNC(=O)c2ccc3c(c2)CCN3S(=O)(=O)c2ccc(Cl)cc2)cc1 | – | inconclusive: 25.1 µM [inhibitor, partial curve, poor fit] |
| COc1ccc(OC)c(NC(=O)c2ccc(-c3nc(CSc4ccccc4)c(C)o3)cc2)c1 | – | inconclusive: 22.4 µM [inhibitor, partial curve, poor fit] |
| COc1ccccc1CCNC(=O)c1ccc(NC(=O)N2CC(C)Sc3ccccc32)cc1 (stereo not drawn) | – | inconclusive: 39.8 µM [inhibitor, single point] |
| CCOC(=O)c1ccc(NC(=O)c2ccc3c(c2)c(C)c(C)n3Cc2ccc(F)cc2)cc1 | – | inconclusive: 25.1 µM [inhibitor, single point] |
| COc1cc(OC)cc(C(=O)Nc2ccc(S(=O)(=O)N3CCCCC3c3cccnc3)cc2)c1 (stereo not drawn) | – | inconclusive: 39.8 µM [inhibitor, single point] |
| Cc1cccc(CSc2nc3cccnc3n2Cc2ccc(C(=O)NCc3cccs3)cc2)c1 | – | inconclusive: 39.8 µM [inhibitor, single point] |
| Cc1ccc(NC(=O)c2cc3c(Cl)nc4ccc(C)cc4c3s2)c(Cl)c1 | inactive: -7.6% | – |
| CCOc1ccccc1N1CC(c2nc3ccccc3n2CCOc2ccc(OC)cc2)CC1=O (stereo not drawn) | – | inconclusive: 39.8 µM [inhibitor, single point] |
| Cc1nnc(N2CCCC(C(=O)Nc3ccccc3C(F)(F)F)C2)c2nn(-c3ccccc3)c(C)c12 (stereo not drawn) | – | inconclusive: 39.8 µM [inhibitor, single point] |
| COc1ccc(-c2ccc(CNc3ccc4[nH]c(=O)[nH]c4c3)o2)cc1Cl | – | inconclusive: 14.1 µM [inhibitor, partial curve, poor fit] |
| Cc1cccc(C(=O)NCC(c2ccc3c(c2)OCO3)N2CCN(c3ccccc3F)CC2)c1 (stereo not drawn) | – | inconclusive: 35.5 µM [inhibitor, partial curve, poor fit] |

| SMILES | activity change, negative = inhibition | Potency |
| --- | --- | --- |
| COc1ccc(NC(=O)c2sc3nc4c(cc3c2N)CN(C(C)C)CC4)c(OC)c1 | inactive: -13.9% | – |
| COc1ccc(S(=O)(=O)c2c(Nc3ccc(C)cc3)sc(C(=O)c3ccc(C)cc3)c2N)cc1 | – | inconclusive: 8.91 µM [inhibitor, full curve, poor fit] |
| CCOc1ccccc1Nc1nc(-c2cccc(Cl)c2)c2c(n1)-c1ccccc1OC2 | inactive: 16.1% | – |
| CCOC(=O)c1cccc(NC(=O)CCc2c(C)nc3cc(-c4ccc(Cl)cc4)nn3c2C)c1 | – | inconclusive: 0.282 µM [inhibitor, full curve, poor fit] |
| COc1ccc(NC(=O)c2ccc3c(=O)n4nc(Nc5cc(C)ccc5C)sc4nc3c2)cc1 | – | inconclusive: 31.6 µM [inhibitor, partial curve, poor fit] |
| COc1ccc(OC)c(NC(=O)Cn2cnc3sc(C)c(S(=O)(=O)N4CCN(c5ccccc5OC)CC4)c3c2=O)c1 | inactive: -8.76% | – |
| COc1ccc(C(=O)N2CCC(c3nc4ccccc4o3)CC2)cc1 | – | inconclusive: 28.2 µM [inhibitor, single point] |
| c1ccc(Cc2nnc(SCc3nc(-c4cccs4)no3)n2-c2ccccc2)cc1 | – | inconclusive: 35.5 µM [inhibitor, single point] |
| Cc1ccccc1N1CCN(S(=O)(=O)c2nnc(NC(=O)c3ccccc3)s2)CC1 | – | inconclusive: 20 µM [inhibitor, partial curve, poor fit] |
| COc1ccc(S(=O)(=O)c2c(Nc3ccc(F)cc3)sc(C(=O)c3ccc(C)cc3C)c2N)cc1 | – | inconclusive: 12.6 µM [inhibitor, partial curve, poor fit] |
| Cc1onc(-c2c(Cl)cccc2Cl)c1C(=O)Cl | inactive: 8.56% | – |
| CS(=O)(=O)CCNCc1ccc(-c2ccc3ncnc(Nc4ccc(OCc5cccc(F)c5)c(Cl)c4)c3c2)o1 | – | inactive and inconclusive: 20 µM [inhibitor, single point] |
| CCOc1ccc(NC(=O)CSc2nccn2-c2cccc(C)c2C)cc1 | – | inconclusive: 39.8 µM [inhibitor, single point] |
| CCOc1ccccc1CNC(=O)c1cc2c(=O)n(Cc3ccccc3)ccc2nc1C | – | inconclusive: 14.1 µM [inhibitor, partial curve, poor fit] |
| O=S(=O)(NCC(c1ccco1)S(=O)(=O)c1cccs1)c1ccc(F)c(C(F)(F)F)c1 (stereo not drawn) | – | inconclusive: 39.8 µM [inhibitor, single point] |
| CCc1ccccc1NC(=O)Cn1c(=O)c2cccn2c2ccc(F)cc21 | inactive: -10.7% | – |
| CC(C)c1ccc(NC(=O)CSC2=Nc3ccccc3C3=NC(CC(=O)NCc4ccc(F)cc4)C(=O)N23)cc1 (stereo not drawn) | – | inconclusive: 39.8 µM [inhibitor, single point] |
| N#Cc1ccccc1NC(=O)c1cc2c(=O)n3ccccc3nc2s1 | inactive: -2.06% | – |
| CO[C@@H]1[C@@H](O)[C@H](O)[C@@H](n2c3c(Cl)cccc3c3c4c(c5c6cccc(Cl)c6[nH]c5c32)C(=O)NC4=O)O[C@@H]1CO | – | inconclusive: 0.432 µM [inhibitor, full curve, poor fit] |
